According to PubChem BioAssay AID1346428 (National Center for Advancing Translational Sciences (NCATS), 2018):
The campaign covered roughly 48,000 compounds. About 1,200 (2.5%) were called active. Roughly 2% stayed inconclusive and do not appear here.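 Rule for the calls: active = activation of at least 60% and not above a set upper limit (about 1 call in 100 departs from these limits); inconclusive = activation of 40% to 60%, or above that upper limit; inactive = activation under 40%.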 This is one part of the list.

Biological target: Probable G-protein coupled receptor 32 (Homo sapiens) (UniProt O75388)
Chain of UniProt O75388 (O75388 whole entry, looked up): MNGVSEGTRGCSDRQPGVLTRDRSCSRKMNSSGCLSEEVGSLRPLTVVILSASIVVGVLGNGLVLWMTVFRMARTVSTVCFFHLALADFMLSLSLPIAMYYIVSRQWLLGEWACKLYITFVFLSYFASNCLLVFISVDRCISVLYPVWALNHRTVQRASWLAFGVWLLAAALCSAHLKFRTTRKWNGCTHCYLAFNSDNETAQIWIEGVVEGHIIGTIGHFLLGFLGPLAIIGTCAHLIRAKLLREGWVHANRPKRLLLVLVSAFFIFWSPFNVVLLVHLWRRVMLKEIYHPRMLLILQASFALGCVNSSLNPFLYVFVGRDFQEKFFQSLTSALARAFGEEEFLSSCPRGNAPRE
Assay: qHTS for Agonists of Human Resolvin D1 Receptor DRV1; note: 0% is about no effect
Settings: CHO-K1 GPR32 beta-arrestin PathHunter luminescence, 90 min; at 76.9 µM; active compounds read high; zero percent set by DMSO-only wells
How it was run: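 Using DMSO wells as EC0, agonist-induced signal was taken as chemiluminescence from beta-Gal reconstituted upon beta-arrestin recruitment to GPR32 in CHO-K1 cells after 90 min compound treatment.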

activation, inactive:
CCN(CC)S(=O)(=O)c1ccc2c(c1)N(CC(=O)N1CCN(c3ccc(F)cc3)CC1)C(=O)CO2 -31.2%, COc1cc(CN2CCN(S(=O)(=O)c3ccccc3)CC2)cc(OC)c1O 13.9%, CCc1ccccc1NC(=O)C1=C(C)C(=O)OC12CCCCCC2 0.79%, O=C(CNS(=O)(=O)c1cccs1)N1CCN(c2cccc(C(F)(F)F)c2)CC1 8.56%, Cc1cccc(NC(=O)C(=O)NCC(c2ccc3c(c2)OCO3)N2CCN(C)CC2)c1C (configuration not stated) 13.9%, COc1ccc(CNC(=O)c2cc3c(=O)oc4ccc(C)cc4c3s2)c(OC)c1 -1.35%, COc1ccc(OC)c(NC(=O)c2cccn2-c2nnc(N3CCCCC3)s2)c1 -23.8%, COc1cc(NC(=O)CSc2ncc(S(=O)(=O)c3ccc(Br)cc3)c(=O)[nH]2)cc(OC)c1 -9.9%, Cc1c2cnn(CC(=O)NCCc3ccccc3)c(=O)c2c(C)n1Cc1ccccc1 -14.1%, CC[C@]1(O)C[C@H]2CN(CCc3c([nH]c4ccccc34)[C@@](C(=O)OC)(c3cc4c(cc3OC)N(C=O)[C@H]3[C@@](O)(C(=O)OC)[C@H](OC(C)=O)[C@]5(CC)C=CCN6CC[C@]43[C@@H]65)C2)C1 -6.89%, Fc1ccc(-c2noc3ncnc(NC4CCCCC4)c23)cc1 -10.6%, COc1ccc(Cn2c(=O)c3oc4ccccc4c3n(Cc3ccc(F)cc3)c2=O)cc1 -6.94%, COc1cc(C2CC(=O)Nc3cc4c(cc32)OCCO4)cc(Br)c1OC (configuration not stated) -5.01%, Cc1cc(Nc2cccc(Cl)c2)nc2ccc(NC(=O)Cc3cccc(C(F)(F)F)c3)cc12 6.12%, CCCCOc1cccc(C(=O)N(Cc2sccc2C)C2CCS(=O)(=O)C2)c1 (configuration not stated) -25.8%, CCN(CC)S(=O)(=O)c1ccc2oc(C(=O)N(C)Cc3ccccc3)c(C)c2c1 0.169%, COc1ccc(CNC(=O)c2ccc(NC(=O)N3CCCCc4ccccc43)cc2)cc1 6.85%, CC(=O)[C@H]1CC[C@H]2[C@@H]3C=CC4=CC(=O)CC[C@@]4(C)[C@@H]3CC[C@]12C 7.22%, Cc1ccc(C)c(CN2C(=O)c3ccccc3S(=O)(=O)c3ccc(C(=O)N4CCCCC4)cc32)c1 -21.4%, COc1cc(NC(=O)c2cc(S(=O)(=O)N3CCc4ccccc43)cn2C)cc(OC)c1OC -8.78%, CC(C)n1c(=N)c(C(=O)NCc2ccccc2)cc2c(=O)n3ccccc3nc21 -8.21%, CCc1ccccc1N(C)C(=O)c1cc2c(=O)oc3ccccc3c2s1 14.5%, CC(=O)c1cccc(NC(=O)c2noc3c2CCCC3)c1 5.53%, CC(C)CC(=O)Nc1c(C(=O)N2CCN(c3ccccc3)CC2)oc2ccccc12 -24.3%, O=C(C1CCC1)N1CCc2cc(S(=O)(=O)NCc3ccc(F)cc3)ccc21 -2.22%, COc1ccc(C)cc1NC(=O)N1CCCn2nc(C)cc21 -5.4%, O=C(COc1ccccc1[N+](=O)[O-])N(Cc1ccco1)c1ccccn1 12.8%, COc1cc2c(=O)n(CCc3ccccc3)c(=O)n(CC(=O)Nc3ccccc3)c2cc1OC 3.14%, COc1ccc(OC)c(NC(=O)/C=C/c2ccc(C)o2)c1 30.2%, CCOc1ccccc1NC(=O)Cn1c(=O)n(-c2cccc(C)c2)c(=O)c2c1c1cc(OC)ccc1n2C -7.76%, COC(=O)c1ccccc1NC(=O)N1CCc2c(sc3c2CCCC3)C1c1ccc(F)cc1 (configuration not stated) -0.103%, O=C(COc1ccccc1)NC1CC(=O)N(c2ccc3c(c2)OCCO3)C1 (configuration not stated) -1.29%, COc1ccc(C(=O)Cn2c(=O)c(-c3cc(C)ccc3NC(C)=O)nc3ccccc32)cc1 -3.91%, CC(=O)c1cc2c(cc1N/C(=N/S(=O)(=O)c1ccc(Br)cc1)c1ccccc1)OCO2 -33.3%, O=C(Cn1c(=O)n(CC2CCC(C(=O)NCCc3ccccc3)CC2)c(=O)c2ccccc21)Nc1cccc(F)c1 (configuration not stated) 20.3%, Cc1ccccc1Cn1c(CN2CCCC(C)C2)nc2c1c(=O)n(C)c(=O)n2C (configuration not stated) 1.24%, Cc1ccc(C)c(N2CCN(C(=O)c3noc4c3CCCCC4)CC2)c1 -28.5%, CCOc1ccc(C(=O)c2cn(CC(=O)Nc3ccc(Cl)cc3)c3cc4c(cc3c2=O)OCCO4)cc1 18%, CCc1cccc(C)c1NC(=O)c1cccc(C(=O)Nc2c(C)cccc2CC)c1 -6.13%, CCC(C)NC(=O)CCc1c(C)nc2nc(-c3cc(OC)cc(OC)c3)nn2c1C (configuration not stated) -4.82%, Cc1ccc(NC(=O)[C@@H](c2ccccc2)N2Cc3ccccc3C2=O)cc1 -29.5%, COC(=O)c1cc2oc3ccccc3c2n1Cc1nc(-c2ccccc2C)oc1C -18.4%, O=C(CSCc1cc(=O)c2cc(F)ccc2[nH]1)Nc1ccccc1Cl 22.1%, Cc1cccc(N2CCN(S(=O)(=O)c3cc(C(=O)Nc4ccccc4Cl)ccc3F)CC2)c1C -11.2%, CCc1ccccc1NC(=O)CSc1nnc2ccc3ccccc3n12 -9.72%, COc1ccc(OC)c(CCNc2nc3ccccc3c3nc(-c4cccnc4)nn23)c1 -28.4%, Brc1ccc(-n2nc(-c3ccccc3)c3cnc4cc5c(cc4c32)OCO5)cc1 -1.21%, Cc1ccc2[nH]c(CSc3nnc(NC(=O)c4ccc(Cl)cc4)s3)cc(=O)c2c1 18.7%, Cc1cc(=O)[nH]c(=S)[nH]1 21.9%, Cc1cc(S(=O)(=O)C(CNC(=O)COc2ccc(Cl)cc2)c2cccs2)ccc1F (configuration not stated) 16.5%, CCCN(CCC)C(=O)c1c2c(nc3ccccc13)C(=O)N(C1CCCCC1)C2 -12%

activation, active:
Cc1cccc(N2CCN(C(=O)CCCCn3c(=O)[nH]c4ccsc4c3=O)CC2)c1C 61.7%
